We go through 27 molecules from PubChem BioAssay AID485344 (National Center for Advancing Translational Sciences (NCATS), 2010).

About 6,900 (2%) of roughly 340,000 compounds were called active. No stated cut-off is given here; in the data, active means inhibition above about 30%; inactive means below that, where a call was filed. Only a part is listed here, and it is no random draw. Where no call is shown, the source filed none.

The target in this test is D(2) dopamine receptor (Homo sapiens) (UniProt P14416). Put plainly: HTS Assay for Allosteric Antagonists of the Human D2 Dopamine Receptor: Primary Screen for Antagonists. Further: 0% is about no effect. The note with it: HEK293 TREx D2 cells, calcium flux, dopamine EC80; at 10 µM; stronger effect = higher value. In short, it runs like this: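 In this primary screen, negative modulation is detected by tracking calcium flux after an EC80 dopamine challenge in inducible HEK293 T-REx D2 cells preexposed to test compound for 180 s.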
Chain of UniProt P14416 (P14416 whole entry, looked up): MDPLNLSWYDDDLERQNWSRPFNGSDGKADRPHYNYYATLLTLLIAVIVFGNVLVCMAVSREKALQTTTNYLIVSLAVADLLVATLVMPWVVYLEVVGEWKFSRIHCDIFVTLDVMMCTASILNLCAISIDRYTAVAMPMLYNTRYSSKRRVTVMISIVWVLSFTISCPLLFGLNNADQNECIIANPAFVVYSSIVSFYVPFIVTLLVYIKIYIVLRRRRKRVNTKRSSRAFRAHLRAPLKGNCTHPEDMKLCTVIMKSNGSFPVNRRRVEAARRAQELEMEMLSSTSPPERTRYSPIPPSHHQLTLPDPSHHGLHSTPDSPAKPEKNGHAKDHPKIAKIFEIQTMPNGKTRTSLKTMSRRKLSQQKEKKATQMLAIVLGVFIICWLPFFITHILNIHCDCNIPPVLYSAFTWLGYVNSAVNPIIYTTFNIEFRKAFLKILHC
In the case of `Cc1ccc(-c2nc(S(=O)(=O)c3ccc(C)cc3)c(N3CCCCC3)o2)cc1`, the inhibition was -1.04%.

For the molecule `Cc1cccc(Cc2c(C)nc3nc(SCc4cccc(F)c4)nn3c2C)c1`, the inhibition came to 6.91%.

With `Cn1c(C(=O)NCCCN2CCc3ccccc3C2)cc2c(=O)n(C)c3ccccc3c21`, the inhibition was active: 80.5%.

`CCc1ccc(-n2c(N3CCN(c4cccc(C)c4C)CC3)nc3ccccc3c2=O)cc1`: the inhibition stood at 8.13%.

Take `Cc1ccc(Nc2nc(N)nc(N)c2S(=O)(=O)c2ccccc2)cc1`: the inhibition was -2.32%.

Regarding `COC(=O)c1sccc1S(=O)(=O)N(CC(=O)NCc1ccccc1)c1ccc(C)cc1`, the inhibition came out at 2.95%.

For `COc1ccccc1C(=O)Nc1nc(-c2ccc(Br)cc2)ns1`, the inhibition was 5.88%.

`O=C(N1CCN(c2ccccc2)CC1)C12CC3CC(CC(C3)C1)C2`: the inhibition is active: 72%.

In the case of `O=C(CC1S/C(=N/N=C/c2cccs2)NC1=O)Nc1ccc(Cl)cc1` (configuration not stated), the inhibition is active: 43.8%.

As to `COc1ccccc1N1CCN(C(=O)C2CCCN(S(=O)(=O)c3ccc4c(c3)oc(=O)n4C)C2)CC1` (configuration not stated), the inhibition is -3.12%.

For `Cc1ccc(C)c(NC(=O)Cn2cnc3nc4c(cc3c2=O)CCCC4)c1`, the inhibition worked out at 2.34%.

Consider `CCOC(=O)c1cccc(NC(=O)c2ccc3snnc3c2)c1`, for which the inhibition worked out at 8.26%.

Take `COc1ccc(NC(C)=O)cc1NC(=O)CN1CCN(S(=O)(=O)c2ccc(C(C)C)cc2)CC1`: the inhibition is active: 38.2%.

Take `CCN1C(=O)c2cccc3c(S(=O)(=O)N4CCC(C)CC4)ccc1c23`: the inhibition is active: 37.5%.

For the molecule `COC(=O)C1CCN(C(c2ccccc2Cl)c2sc3nc(-c4ccco4)nn3c2O)CC1` (configuration not stated), the inhibition amounted to 8.2%.

For `CCCCOc1ccc(C(=O)Nc2onc3c2CCCC3)cc1`, the inhibition was 7.12%.

As for `O=C(C[n+]1cccc(CNC(=O)c2ccc(OC(F)F)cc2)c1)Nc1cc(C(F)(F)F)ccc1Cl`, the inhibition is active: 63%.

For the molecule `Cc1cc(C)cc(NC(=O)Nc2cccs2)c1`, the inhibition was -2.68%.

`CCOC(=O)CN1C(C(=O)c2ccccc2)=C(OC(=O)c2ccccc2)c2ccccc2S1(=O)=O`: the inhibition came to 19.3%.

As to `Cc1ccc(NC(=O)C2CCCN(S(=O)(=O)c3ccc(F)cc3)C2)cc1` (configuration not stated), the inhibition was -8.68%.

Regarding `Cc1ccc(NC(=O)CSc2nc3ccc(NC(=O)c4ccco4)cc3s2)c(C)c1`, the inhibition was found to be 5.25%.

As for `CSc1cccc(NC(=O)C(c2ccccc2)N2Cc3ccccc3C2=O)c1` (configuration not stated), the inhibition was -4.2%.

With `COC(=O)c1cccc(CN2C(=O)SC(Nc3ccc(Br)cc3)C2=O)c1` (configuration not stated), the inhibition worked out at 7.16%.

Regarding `CNC(=O)c1c(NC(=O)c2ccc(S(=O)(=O)N3CCCC(C)C3)cc2)sc2c1CCC2` (configuration not stated), the inhibition was 9.35%.

As for `COc1ccc(C(CNC(=O)c2cc3ccccc3o2)N2CCCCC2)cc1` (configuration not stated), the inhibition was active: 66.6%.

As to `COc1ccc(-c2cc(C(F)(F)F)nc(NCCc3ccccc3)n2)cc1`, the inhibition was -3.59%.

For `COC(=O)c1c(SCC(=O)Nc2cc(F)ccc2F)[nH]c2ccc(C)cc2c1=O`, the inhibition is -5.37%.
